This is an account of results in patent US20230113563A1 (SYSTIMMUNE, published 2023).

In experiment [1] the target is MICA on MDA-MB-231 cells (UniProt Q29983 24-383, limits assumed). The experiment can be described thus: cell-based or functional assay.
The target in experiment [2] is mesothelin on MDA-MB-231 cells (UniProt Q13421 37-598, limits assumed). Nature of the experiment: cell-based or functional assay.

UniProt Q29983, sequence (Q29983 24-383 limits assumed): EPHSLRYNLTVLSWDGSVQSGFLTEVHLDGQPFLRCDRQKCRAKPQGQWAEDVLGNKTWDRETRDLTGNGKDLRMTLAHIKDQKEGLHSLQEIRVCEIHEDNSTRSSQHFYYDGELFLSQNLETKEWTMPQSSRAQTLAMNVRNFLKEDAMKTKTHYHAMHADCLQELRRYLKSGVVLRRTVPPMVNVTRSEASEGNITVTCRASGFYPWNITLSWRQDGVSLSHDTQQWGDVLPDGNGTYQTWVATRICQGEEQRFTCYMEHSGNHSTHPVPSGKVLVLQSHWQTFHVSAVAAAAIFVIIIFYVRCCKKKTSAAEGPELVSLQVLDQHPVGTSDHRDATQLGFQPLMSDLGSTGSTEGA

B1: SI-49E3 (other)
heavy: DVVMTQSPSSVSASVGDRVTITCQASQNIRTYLSWYQQKPGKAPKLLIYAAANLASGVPSRFSGSGSGTDFTLTISDLEPGDAATYYCQSTYLGTDYVGGAFGGGTKVEIKGGGGSGGGGSGGGGSGGGGSRSLVESGGGLVQPGGSLRLSCTASGFTISSYHMQWVRQAPGKGLEYIGTISSGGNVYYASSARGRFTISRPSSKNTVDLQMNSLRAEDTAVYYCARDSGYSDPMWGQGTLVTVSTGGGGSGGGGSEVQLLESGGGLVQPGGSLRLSCAASGFSFSSGYDMCWVRQAPGKGLEWIACIAAGSAGITYDANWAKGRFTISRDNSKNTLYLQMNSLRAEDTAVYYCARSAFSFDYAMDLWGQGTLVTVSSASTKGPSVFPLAPSSKSTSGGTAALGCLVKDYFPEPVTVSWNSGALTSGVHTFPAVLQSSGLYSLSSVVTVPSSSLGTQTYICNVNHKPSNTKVDKRV[human IgG1 Fc with changes cut from this listing]GGGGSGGGGSEVQLVESGGGLVQPGGSLRLSCAASGFTISTNAMSWVRQAPGKGLEWIGVITGRDITYYASWAKGRFTISRDNSKNTLYLQMNSLRAEDTAVYYCARDGGSSAITSNNIWGQGTLVTVSSGGGGSGGGGSGGGGSGGGGSDVVMTQSPSTLSASVGDRVTINCQASESISSWLAWYQQKPGKAPKLLIYEASKLASGVPSRFSGSGSGTEFTLTISSLQPDDFATYYCQGYFYFISRTYVNSFGGGTKVEIKGGGGSGGGGSGFLNSLFNQEVQIPLTESYCGPCPKNWICYKNNCYQFFDESKNWYESQASCMSQNASLLKVYSKEDQDLLKLVKSYHWMGLVHIPTNGSWQWEDGSILSPNLLTIIEMQKGDCALYASSFKGYIENCSTPNTYICMQRTVGGGGSGGGGSGGGGSGGGGSFLNSLFNQEVQIPLTESYCGPCPKNWICYKNNCYQFFDESKNWYESQASCMSQNASLLKVYSKEDQDLLKLVKSYHWMGLVHIPTNGSWQWEDGSILSPNLLTIIEMQKGDCALYASSFKGYIENCSTPNTYICMQRTV
light: DIQMTQSPSTLSASVGDRVTITCQASQSISSHLNWYQQKPGKAPKLLIYKASTLASGVPSRFSGSGSGTEFTLTISSLQPDDFATYYCQQGYSWGNVDNVFGGGTKVEIKRTVAAPSVFIFPPSDEQLKSGTASVVCLLNNFYPREAKVQWKVDNALQSGNSQESVTEQDSKDSTYSLSSTLTLSKADYEKHKVYACEVTHQGLSSPVTKSFNRGEC
In the case of B1, the “TDCC EC50 (pM), MDA-MB-231 target cells, E:T 5” value (from here on “TDCC EC50 (pM)”) in experiment [1] stood at 0.055 pM.

B2: SI-49E4 (other)
heavy: DIQMTQSPSTLSASVGDRVTITCQASQSISSHLNWYQQKPGKAPKLLIYKASTLASGVPSRFSGSGSGTEFTLTISSLQPDDFATYYCQQGYSWGNVDNVFGGGTKVEIKGGGGSGGGGSGGGGSGGGGSEVQLLESGGGLVQPGGSLRLSCAASGFSFSSGYDMCWVRQAPGKGLEWIACIAAGSAGITYDANWAKGRFTISRDNSKNTLYLQMNSLRAEDTAVYYCARSAFSFDYAMDLWGQGTLVTVSTGGGGSGGGGSRSLVESGGGLVQPGGSLRLSCTASGFTISSYHMQWVRQAPGKGLEYIGTISSGGNVYYASSARGRFTISRPSSKNTVDLQMNSLRAEDTAVYYCARDSGYSDPMWGQGTLVTVSSASTKGPSVFPLAPSSKSTSGGTAALGCLVKDYFPEPVTVSWNSGALTSGVHTFPAVLQSSGLYSLSSVVTVPSSSLGTQTYICNVNHKPSNTKVDKRV[human IgG1 Fc with changes cut from this listing]GGGGSGGGGSEVQLVESGGGLVQPGGSLRLSCAASGFTISTNAMSWVRQAPGKGLEWIGVITGRDITYYASWAKGRFTISRDNSKNTLYLQMNSLRAEDTAVYYCARDGGSSAITSNNIWGQGTLVTVSSGGGGSGGGGSGGGGSGGGGSDVVMTQSPSTLSASVGDRVTINCQASESISSWLAWYQQKPGKAPKLLIYEASKLASGVPSRFSGSGSGTEFTLTISSLQPDDFATYYCQGYFYFISRTYVNSFGGGTKVEIKGGGGSGGGGSGFLNSLFNQEVQIPLTESYCGPCPKNWICYKNNCYQFFDESKNWYESQASCMSQNASLLKVYSKEDQDLLKLVKSYHWMGLVHIPTNGSWQWEDGSILSPNLLTIIEMQKGDCALYASSFKGYIENCSTPNTYICMQRTVGGGGSGGGGSGGGGSGGGGSFLNSLFNQEVQIPLTESYCGPCPKNWICYKNNCYQFFDESKNWYESQASCMSQNASLLKVYSKEDQDLLKLVKSYHWMGLVHIPTNGSWQWEDGSILSPNLLTIIEMQKGDCALYASSFKGYIENCSTPNTYICMQRTV
light: DVVMTQSPSSVSASVGDRVTITCQASQNIRTYLSWYQQKPGKAPKLLIYAAANLASGVPSRFSGSGSGTDFTLTISDLEPGDAATYYCQSTYLGTDYVGGAFGGGTKVEIKRTVAAPSVFIFPPSDEQLKSGTASVVCLLNNFYPREAKVQWKVDNALQSGNSQESVTEQDSKDSTYSLSSTLTLSKADYEKHKVYACEVTHQGLSSPVTKSFNRGEC
For B2, in experiment [1], the “TDCC EC50 (pM)” value is 0.009 pM.

B3: SI-51E1 (other)
heavy: DVVMTQSPSTLSASVGDRVTINCQASESISSWLAWYQQKPGKAPKLLIYEASKLASGVPSRFSGSGSGTEFTLTISSLQPDDFATYYCQGYFYFISRTYVNSFGGGTKVEIKGGGGSGGGGSGGGGSGGGGSEVQLVESGGGLVQPGGSLRLSCAASGFTISTNAMSWVRQAPGKGLEWIGVITGRDITYYASWAKGRFTISRDNSKNTLYLQMNSLRAEDTAVYYCARDGGSSAITSNNIWGQGTLVTVSTGGGGSGGGGSQVQLQQPGAELVRPGASVKLSCKASGYTFTSYWINWVKQRPGQGLEWIGNIYPSDSYTNYNQKFKDKATLTVDKSSSTAYMQLSSPTSEDSAVYYCTRSWRGNSFDYWGQGTTLTVSSASTKGPSVFPLAPSSKSTSGGTAALGCLVKDYFPEPVTVSWNSGALTSGVHTFPAVLQSSGLYSLSSVVTVPSSSLGTQTYICNVNHKPSNTKVDKRV[human IgG1 Fc with changes cut from this listing]GGGGSGGGGSEVQLLESGGGLVQPGGSLRLSCAASGFSFSSGYDMCWVRQAPGKGLEWIACIAAGSAGITYDANWAKGRFTISRDNSKNTLYLQMNSLRAEDTAVYYCARSAFSFDYAMDLWGQGTLVTVSSGGGGSGGGGSGGGGSGGGGSDIQMTQSPSTLSASVGDRVTITCQASQSISSHLNWYQQKPGKAPKLLIYKASTLASGVPSRFSGSGSGTEFTLTISSLQPDDFATYYCQQGYSWGNVDNVFGGGTKVEIKGGGGSGGGGSGRSLVESGGGLVQPGGSLRLSCTASGFTISSYHMQWVRQAPGKGLEYIGTISSGGNVYYASSARGRFTISRPSSKNTVDLQMNSLRAEDTAVYYCARDSGYSDPMWGQGTLVTVSSGGGGSGGGGSGGGGSGGGGSDVVMTQSPSSVSASVGDRVTITCQASQNIRTYLSWYQQKPGKAPKLLIYAAANLASGVPSRFSGSGSGTDFTLTISDLEPGDAATYYCQSTYLGTDYVGGAFGGGTKVEIK
light: DIVMTQSPSSLTVTAGEKVTMSCKSSQSLLNSGNQKNYLTWYQQKPGQPPKLLIYWASTRESGVPDRFTGSGSGTDFTLTISSVQAEDLAVYYCQNDYSYPFTFGSGTKLEIKRTVAAPSVFIFPPSDEQLKSGTASVVCLLNNFYPREAKVQWKVDNALQSGNSQESVTEQDSKDSTYSLSSTLTLSKADYEKHKVYACEVTHQGLSSPVTKSFNRGEC
As for B3, the “TDCC EC50 (pM)” value in experiment [2] is 0.009 pM.

B4: SI-51E4 (other)
heavy: DVVMTQSPSTLSASVGDRVTINCQASESISSWLAWYQQKPGKAPKLLIYEASKLASGVPSRFSGSGSGTEFTLTISSLQPDDFATYYCQGYFYFISRTYVNSFGCGTKVEIKGGGGSGGGGSGGGGSGGGGSEVQLVESGGGLVQPGGSLRLSCAASGFTISTNAMSWVRQAPGKCLEWIGVITGRDITYYASWAKGRFTISRDNSKNTLYLQMNSLRAEDTAVYYCARDGGSSAITSNNIWGQGTLVTVSTGGGGSGGGGSQVQLQQPGAELVRPGASVKLSCKASGYTFTSYWINWVKQRPGQGLEWIGNIYPSDSYTNYNQKFKDKATLTVDKSSSTAYMQLSSPTSEDSAVYYCTRSWRGNSFDYWGQGTTLTVSSASTKGPSVFPLAPSSKSTSGGTAALGCLVKDYFPEPVTVSWNSGALTSGVHTFPAVLQSSGLYSLSSVVTVPSSSLGTQTYICNVNHKPSNTKVDKRV[human IgG1 Fc with L234A L235A N297A K322A (EU numbers) cut from this listing]GGGGSGGGGSEVQLLESGGGLVQPGGSLRLSCAASGFSFSSGYDMCWVRQAPGKCLEWIACIAAGSAGITYDANWAKGRFTISRDNSKNTLYLQMNSLRAEDTAVYYCARSAFSFDYAMDLWGQGTLVTVSSGGGGSGGGGSGGGGSGGGGSDIQMTQSPSTLSASVGDRVTITCQASQSISSHLNWYQQKPGKAPKLLIYKASTLASGVPSRFSGSGSGTEFTLTISSLQPDDFATYYCQQGYSWGNVDNVFGCGTKVEIKGGGGSGGGGSGRSLVESGGGLVQPGGSLRLSCTASGFTISSYHMQWVRQAPGKCLEYIGTISSGGNVYYASSARGRFTISRPSSKNTVDLQMNSLRAEDTAVYYCARDSGYSDPMWGQGTLVTVSSGGGGSGGGGSGGGGSGGGGSDVVMTQSPSSVSASVGDRVTITCQASQNIRTYLSWYQQKPGKAPKLLIYAAANLASGVPSRFSGSGSGTDFTLTISDLEPGDAATYYCQSTYLGTDYVGGAFGCGTKVEIK
light: B3 light
Consider B4, for which the “TDCC EC50 (pM)” value in experiment [2] stood at 0.009 pM.
